The RNAGym collection of RNA variant scans (doi:10.1101/gad.245936.114)
Variants at the floor of the assay are shown more often than the library holds them.

B1: tRNA (parent)
chain: CUCUCGGUAGCCAAGUUGGUUUAAGGCGCAAGACUUUAAUUUAUCACUACGAAAUCUUGAGAUCGGGCGUUCGACUCGCCCCCGGGAGAUUUUUUCCUCGAGCAA

Variants of: B1
Test: nonsense suppression (GFP-seq) (ratio to wild type); higher = more function; SUP4oc tRNA, yeast GFP reporter sort-seq
Method in brief: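 Raffinose/galactose medium with 80 mg/L adenine was used to grow yeast carrying genome-integrated tRNA variants (~3% random-mutation library), RFP, and a galactose-driven GFP ochre reporter. Cells went into GFP/RFP bins, which were Illumina-sequenced, and variants with ≥100 reads and ≥30 cells were scored. Nonsense suppression (GFPSEQ) is the per-bin median GFP/RFP weighted by estimated cell share and expressed relative to the unmutated parent tRNA.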

Row | Variant | nonsense suppression
1 | U16A G19A | ≤ 0.026
2 | G15A A30U | ≤ 0.026
3 | U16G G18A A30U G73C G78A C83G | ≤ 0.026
4 | U16C A60C G69A C80U | ≤ 0.026
5 | U16A U57C U76G G86A | ≤ 0.026
6 | G15U G25C U55G U70G | ≤ 0.026
7 | G15C C56U | ≤ 0.026
8 | G15A U22G G28U C34G U57C U58A C80U | ≤ 0.026
9 | G15C U17A | ≤ 0.026
10 | U16A A60G | 0.247
11 | G15U G25C | ≤ 0.026
12 | G15C A24U U58G | ≤ 0.026
13 | G15U G66U | ≤ 0.026
14 | G15A U57C G84C | ≤ 0.026
15 | G15C A24U C64G A89G | ≤ 0.026
16 | G15C U22A A31G A54C | ≤ 0.026
17 | U16A U55C G61C C68A | ≤ 0.026
18 | G15A A33G G61C | ≤ 0.026
19 | U16C G19U G25U | ≤ 0.026
20 | U16A G61A | 0.819
21 | A14U U35A U76G C81U | ≤ 0.026
22 | G15U U22A | ≤ 0.026
23 | G15U A24G A60G A87C G88A | ≤ 0.026
24 | G15U G69C A74C G84A | ≤ 0.026

Row | Variant | nonsense suppression
25 | G15U U55A U71G | ≤ 0.026
26 | U16A C29U | 0.186
27 | G15C C77G | ≤ 0.026
28 | U16G A62C C82A | ≤ 0.026
29 | A14U U58A C75G | ≤ 0.026
30 | A14U U71C | ≤ 0.026
31 | G15U C34U U70C | ≤ 0.026
32 | A14U U20C A24G C75G | ≤ 0.026
33 | G15U G28C G61U G84C | ≤ 0.026
34 | U16G A62C U71A C81U | ≤ 0.026
35 | U16G A23U U35A C79G | ≤ 0.026
36 | A14U U16G | ≤ 0.026
37 | G15C C80A G86C | ≤ 0.026
38 | U16G C29A C79G | ≤ 0.026
39 | A14U U63C G73A | ≤ 0.026
40 | U16G A30C A89C | ≤ 0.026
41 | U16A A54U | 1.06
42 | U16G A54U C68A G86C G88U | ≤ 0.026
43 | U16C C83G G86A A87G | ≤ 0.026
44 | G15C A23G C34A G78C | ≤ 0.026
45 | G15C C68A G78C A87G | ≤ 0.026
46 | G15A G66C U71A G85C | ≤ 0.026
47 | G15A U21A G67A | ≤ 0.026
48 | G15A G73A | ≤ 0.026

Row | Variant | nonsense suppression
49 | G15U U57C C80G | ≤ 0.026
50 | U16C U17A U55G G78U C81A | ≤ 0.026
51 | G15C A31G U57C U63A U70G G85A | ≤ 0.026
52 | U16A G59A G67U G88C | ≤ 0.026
53 | U16G G18A G61U U70A | ≤ 0.026
54 | G15C U16A | ≤ 0.026
55 | G15A G19U | ≤ 0.026
56 | U16C A33G C64U | ≤ 0.026
57 | G15U G26C A62G G65U | ≤ 0.026
58 | G15C A62G C80U | ≤ 0.026
59 | G15A G86C | ≤ 0.026
60 | G15A U20C C27G A54U U57A U70A | ≤ 0.026
61 | U16C U58C G59A A62C | ≤ 0.026
62 | U16C A31U C34G | ≤ 0.026
63 | G15A U58G C80G C81G G86U A87U | ≤ 0.026
64 | G15A U57A | ≤ 0.026
65 | G15C A33G | ≤ 0.026
66 | U16G A54U U63C C80G | ≤ 0.026
67 | U16A A54G C77G | ≤ 0.026
68 | G15C C56U G84C | ≤ 0.026
69 | G15U A23C C29A | ≤ 0.026
70 | U16G A24G A33U U70C | ≤ 0.026
71 | G15A U57C U63G U76C | ≤ 0.026
72 | A14U U21G A23C A31G A62U | ≤ 0.026

Row | Variant | nonsense suppression
73 | U16C U76G | ≤ 0.026
74 | G15A G19U A30U G65C | ≤ 0.026
75 | G15A G26C A33U U57A | ≤ 0.026
76 | G15C C68A | ≤ 0.026
77 | G15C C68U | ≤ 0.026
78 | G15U C29U A31U | ≤ 0.026
79 | G15U G26C G59U | ≤ 0.026
80 | U16C G61C G66U | ≤ 0.026
81 | G15C G65A G86C | ≤ 0.026
82 | G15U A33G | ≤ 0.026
83 | G15U A33C | ≤ 0.026
84 | U16C A23C C34G G84C | ≤ 0.026
85 | A14U U16C U20C | ≤ 0.026
86 | A14U U21G G84U | ≤ 0.026
87 | U16C G66C A87U | ≤ 0.026
88 | G15C A31G G32C A89C | ≤ 0.026
89 | G15C C34A G67U C82G | ≤ 0.026
90 | U16A U20A A30G G61C U76C | ≤ 0.026
91 | G15U U17C A60U | ≤ 0.026
92 | G15A C27U A60U | ≤ 0.026
93 | U16G A60G | 0.39
94 | G15A U21C C82A | ≤ 0.026
95 | G15U A23U G67C | ≤ 0.026
96 | G15A A31C A33C G65A | ≤ 0.026

Row | Variant | nonsense suppression
97 | G15A C34G | ≤ 0.026
98 | G15C A24U G65U G85A | ≤ 0.026
99 | U16A C27U G69U U71A C75G | ≤ 0.026
100 | G15A A24G A60C | ≤ 0.026
101 | U16G A33G A54C G78A | ≤ 0.026
102 | G15U A30U G32A C56G U63C G66A | ≤ 0.026
103 | G15U A24U | ≤ 0.026
104 | G15C U57C G67U | ≤ 0.026
105 | U16G C29U | 1.11
106 | U16A A31U C34G C64A C83G | ≤ 0.026
107 | G15C G84U | ≤ 0.026
108 | U16C U22C C27U | ≤ 0.026
109 | G15A C77A | ≤ 0.026
110 | U16A G18C C82G | ≤ 0.026
111 | U16A G25A | ≤ 0.026
112 | U16C C79U A89G | ≤ 0.026
113 | G15C A23G G73A C77G | ≤ 0.026
114 | U16C G18U C27A G59U A60C U70G | ≤ 0.026
115 | U16C G61A G66C | ≤ 0.026
116 | G15C G19C U58G | ≤ 0.026
117 | U16A U21A A23C A54C U58G G61C G66A G78U | ≤ 0.026
118 | U16G A33U G78U | ≤ 0.026
119 | U16C A60G G86C | ≤ 0.026
120 | U16A G88U | ≤ 0.026

Row | Variant | nonsense suppression
121 | G15U C56U G66A | ≤ 0.026
122 | G15U U17A G67U | ≤ 0.026
123 | G15U A60C C80A | ≤ 0.026
124 | G15A A33C G65C | ≤ 0.026
125 | G15A A24G C29G A60C | ≤ 0.026
126 | U16A U71C G73C G78A A87C | ≤ 0.026
127 | G15A U76A | ≤ 0.026
128 | U16A C56U A62U | ≤ 0.026
129 | G15A G84A | ≤ 0.026
130 | U16A U20A C82G | ≤ 0.026
131 | G15U U76A | ≤ 0.026
132 | U16G C27U A31U | ≤ 0.026
133 | G15A G65A | ≤ 0.026
134 | U16C C83U | 0.5
135 | G15C U22G A30C G84C | ≤ 0.026
136 | G15A G26A | ≤ 0.026
137 | G15A G19U A23U G28A U55C U58G G59C | ≤ 0.026
138 | G15U C82G | ≤ 0.026
139 | G15U C29A | ≤ 0.026
140 | G15U A23G U55G | ≤ 0.026
141 | U16C G67U U71C A74C | ≤ 0.026
142 | G15A U17A G25A C79U A87G | ≤ 0.026
143 | U16C U20A G69A U76G | ≤ 0.026
144 | G15U A60C | ≤ 0.026

Row | Variant | nonsense suppression
145 | G15U U17C C34U | ≤ 0.026
146 | G15A U71A | ≤ 0.026
147 | G15U G19A C81A | ≤ 0.026
148 | U16C C34A | ≤ 0.026
149 | G15A A60U G61U C79U C83A | ≤ 0.026
150 | G15U G32C G73U C81U | ≤ 0.026
151 | G15C U58G U71A | ≤ 0.026
152 | G15C C29A | ≤ 0.026
153 | G15C A24G C72A | ≤ 0.026
154 | G15C U16A U22A A24C | ≤ 0.026
155 | G15A A31U G65C | ≤ 0.026
156 | U16A G32C G88C | ≤ 0.026
157 | U16A G25U C34A | ≤ 0.026
158 | G15U C75G C77A | ≤ 0.026
159 | U16G G26U U35G | ≤ 0.026
160 | U16C U17C G18A G67A | ≤ 0.026
161 | U16A C34G U63C C77U G86C | ≤ 0.026
162 | G15C U17A G28C U71C U76A | ≤ 0.026
163 | G15C G18U | ≤ 0.026
164 | G15C U16C C75A | ≤ 0.026
165 | U16A C56G G78C | ≤ 0.026
166 | A14U U35A U71G C77A | ≤ 0.026
167 | G15U A62U C64U | ≤ 0.026
